Structures can show the parent of a compound that is named as a salt. ± gives the standard deviation of the averaged measurements. The full ranking holds about 1,300 compounds; the median of “normalised cell viability” is about 1, and the lowest 2% start at about 0.15. The list shows a part of the results.

In this test the test system is V-C8 + BRCA2 (BRCA2-proficient hamster cells). The test can be described thus: normalised cell viability (fraction of plate median); higher = more viable cells (less toxic). The note with it: 5 µM. The method, boiled down: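 In two screens, library drugs at 5 μM were given for 3 days (screen 1) or 6 days (screen 2) to hamster V-C8 cells without BRCA2 and V-C8 cells with BRCA2 restored, seeded 24 h earlier in 96-well plates. A resazurin assay gave the cell viability readout, expressed as modified robust per cent of sample against the plate median, with triplicate wells averaged.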

In the case of `CN1CCC[C@@H]1CCO[C@](C)(c1ccccc1)c1ccc(Cl)cc1` [Clemastine fumarate], the normalised cell viability by setting is: (treatment time: 3 days) 0.907 ± 0.084; (treatment time: 6 days) 0.908 ± 0.021.
Consider `CC(C(=O)O)c1ccc(C(=O)c2cccs2)cc1` (stereo not drawn) [Suprofen], for which the normalised cell viability is, setting by setting: (treatment time: 3 days) 1.02 ± 0.049; (treatment time: 6 days) 1.11 ± 0.042.
Regarding `COc1cc2ncnc(Nc3ccc(F)c(Cl)c3)c2cc1OCCCN1CCOCC1` [Gefitinib], the normalised cell viability by setting is: (treatment time: 3 days) 0.904 ± 0.081; (treatment time: 6 days) 0.824 ± 0.033.
Regarding `CCCCC[C@H](O)/C=C/[C@H]1[C@H](O)CC(=O)[C@@H]1CCCCCCC(=O)O` [Alprostadil], the normalised cell viability turned out to be 1.01 ± 0.054 (treatment time: 3 days) and 1.01 ± 0.022 (treatment time: 6 days).
With `CCN1CCC[C@H]1CNC(=O)c1c(O)c(Cl)cc(Cl)c1OC` [Raclopride], the normalised cell viability by setting is: (treatment time: 3 days) 0.884 ± 0.097; (treatment time: 6 days) 0.814 ± 0.085.
On to `NCc1ccc(S(N)(=O)=O)cc1` [Mafenide hydrochloride], for which the normalised cell viability is 1.03 ± 0.046 (treatment time: 3 days) and 0.9782 ± 0.0063 (treatment time: 6 days).
On to `CN[C@@H]1[C@H](O[C@H]2[C@H](O[C@H]3[C@H](O)[C@@H](O)[C@H](NC(=N)N)[C@@H](O)[C@@H]3NC(=N)N)O[C@@H](C)[C@]2(O)CO)O[C@@H](CO)[C@H](O)[C@H]1O` [Dihydrostreptomycin sulfate], for which the normalised cell viability stood at 0.911 ± 0.07 (treatment time: 3 days) and 0.983 ± 0.042 (treatment time: 6 days).
As to `CC/C(=C(\c1ccccc1)c1ccc(OCCN(C)C)cc1)c1ccccc1` [Tamoxifen citrate], the normalised cell viability runs as follows: (treatment time: 3 days) 0.878 ± 0.054; (treatment time: 6 days) 0.88 ± 0.021.
On to `CCc1oc2ccccc2c1C(=O)c1cc(Br)c(O)c(Br)c1` [Benzbromarone], for which the normalised cell viability runs as follows: (treatment time: 3 days) 1.05 ± 0.034; (treatment time: 6 days) 1.08 ± 0.049.
The corresponding values for `C#C[C@]1(O)CC[C@H]2[C@@H]3CCC4=C(CCC(=O)C4)[C@H]3CC[C@@]21C` [Norethynodrel] are 1 ± 0.032 and 1.06 ± 0.1.
The corresponding values for `CC(C)(C)NCC(O)c1cc(O)cc(O)c1` (stereo not drawn) [Terbutaline hemisulfate] are 0.45 ± 0.037 and 0.5206 ± 0.0045.
The corresponding values for `NS(=O)(=O)c1cc2c(cc1Cl)NC(CC1CCCC1)NS2(=O)=O` (stereo not drawn) [Cyclopenthiazide] are 1 ± 0.034 and 1.05 ± 0.064.
For `CCOC(=O)[N-]c1c[n+](N2CCOCC2)no1` [Molsidomine], the normalised cell viability was 1.04 ± 0.05 (treatment time: 3 days) and 1.1 ± 0.028 (treatment time: 6 days).
The corresponding values for `CC[N+](CC)(CC)CCOc1cccc(OCC[N+](CC)(CC)CC)c1OCC[N+](CC)(CC)CC` [Gallamine triethiodide] are 0.93 ± 0.011 and 0.95 ± 0.022.
The corresponding values for `CC(C)NCC(O)c1ccc(O)c(O)c1` (single isomer, unassigned; (-)) [(-)-Isoproterenol hydrochloride] are 1.05 ± 0.093 and 0.993 ± 0.1.
The corresponding values for `O=C1C(O)=C([C@H]2CC[C@H](c3ccc(Cl)cc3)CC2)C(=O)c2ccccc21` [Atovaquone] are 0.958 ± 0.012 and 0.922 ± 0.04.
`Cc1ccccc1C(OCCN(C)C)c1ccccc1` (stereo not drawn) [Orphenadrine hydrochloride]: the normalised cell viability is, setting by setting: (treatment time: 3 days) 0.962 ± 0.13; (treatment time: 6 days) 0.967 ± 0.025.
With `O=C1CCc2ccc(OCCCCN3CCN(c4cccc(Cl)c4Cl)CC3)cc2N1` [Aripiprazole], the normalised cell viability by setting is: (treatment time: 3 days) 0.425 ± 0.082; (treatment time: 6 days) 0.347 ± 0.042.
The corresponding values for `CN(C)CCOC(c1ccc(Cl)cc1)c1ccccn1` (stereo not drawn) [Carbinoxamine maleate salt] are 0.989 ± 0.066 and 0.896 ± 0.035.
Regarding `NC(=O)NC1NC(=O)NC1=O` (stereo not drawn) [Allantoin], the normalised cell viability is, setting by setting: (treatment time: 3 days) 0.922 ± 0.11; (treatment time: 6 days) 1.01 ± 0.064.
The corresponding values for `COC(=O)C1=C(C)NC(C)=C(C(=O)OCC(C)C)C1c1ccccc1[N+](=O)[O-]` (stereo not drawn) [Nisoldipine] are 0.903 ± 0.046 and 0.692 ± 0.071.
The corresponding values for `COC(=O)C1=C(C)NC(C)=C(C(=O)OCCN(C)Cc2ccccc2)C1c1cccc([N+](=O)[O-])c1` (stereo not drawn) [Nicardipine hydrochloride] are 0.871 ± 0.041 and 0.947 ± 0.034.
For the compound `CN1CCN(c2c(F)cc3c(=O)c(C(=O)O)cn4c3c2SCC4)CC1` [Rufloxacin], the normalised cell viability reads like this: (treatment time: 3 days) 0.947 ± 0.016; (treatment time: 6 days) 0.987 ± 0.075.
`Cc1cnc(C(=O)NCCc2ccc(S(=O)(=O)NC(=O)NC3CCCCC3)cc2)cn1` [Glipizide]: the normalised cell viability amounted to 1.09 ± 0.029 (treatment time: 3 days) and 1.11 ± 0.082 (treatment time: 6 days).
Take `O=C1[C@H](CC[C@H](O)c2ccc(F)cc2)[C@@H](c2ccc(O)cc2)N1c1ccc(F)cc1` [Ezetimibe]: the normalised cell viability (treatment time: 3 days) came to 1.03 ± 0.04 and the normalised cell viability (treatment time: 6 days) is 1.08 ± 0.054.
The corresponding values for `CCC1NC(=O)c2cc(S(N)(=O)=O)c(Cl)cc2N1` (stereo not drawn) [Quinethazone] are 0.989 ± 0.058 and 0.989 ± 0.073.
For `COc1ccccc1N1CCN(CCCCNC(=O)c2ccc3ccccc3c2)CC1`, the normalised cell viability (treatment time: 3 days) worked out at 0.982 ± 0.044 and the normalised cell viability (treatment time: 6 days) came to 1.04 ± 0.088.
As for `CC(O)(P(=O)(O)O)P(=O)(O)O` [Etidronic acid, disodium salt], the normalised cell viability runs as follows: (treatment time: 3 days) 0.987 ± 0.016; (treatment time: 6 days) 1.09 ± 0.03.
The corresponding values for `CCN(CC)CCOc1ccc(C(=C(Cl)c2ccccc2)c2ccccc2)cc1` [Clomiphene citrate (Z,E)] are 0.124 ± 0.0093 and 0.128 ± 0.013.
In the case of `CCCCNc1ccc(C(=O)OCCN(C)C)cc1`, the normalised cell viability stood at 1.15 ± 0.08 (treatment time: 3 days) and 1.11 ± 0.036 (treatment time: 6 days).
Consider `CN(C)[C@@H]1C(O)=C(C(=O)NCNCCCC[C@H](N)C(=O)O)C(=O)[C@@]2(O)C(O)=C3C(=O)c4c(O)cccc4[C@@](C)(O)[C@H]3C[C@@H]12` [Lymecycline], for which the normalised cell viability reads like this: (treatment time: 3 days) 0.95 ± 0.014; (treatment time: 6 days) 0.799 ± 0.18.
The corresponding values for `CN1CCOC(c2ccccc2)c2ccccc2C1` (stereo not drawn) [Nefopam hydrochloride] are 0.99 ± 0.035 and 0.983 ± 0.017.
On to `CN1CCC(=C2c3ccccc3CCc3sccc32)CC1` [Pizotifen malate], for which the normalised cell viability is, setting by setting: (treatment time: 3 days) 1.07 ± 0.058; (treatment time: 6 days) 1 ± 0.043.
As for `CCC(=O)OCC(=O)[C@@]1(OC(=O)CC)[C@@H](C)C[C@H]2[C@@H]3CCC4=CC(=O)C=C[C@]4(C)[C@@]3(Cl)[C@@H](O)C[C@@]21C` [Beclomethasone dipropionate], the normalised cell viability (treatment time: 3 days) was 1 ± 0.081 and the normalised cell viability (treatment time: 6 days) was found to be 0.987 ± 0.048.

The values are drawn from the supplement of paper PMC6609913.
